Measured values: PubChem BioAssay AID463173 (ICCB-Longwood Screening Facility, Harvard Medical School, 2010)
Among all 52,000 compounds or so, about 4,300 (8.3%) were called active. Cut-off read from the data, not from the text of the source: active = survival mostly below about 52% (no sharp cut-off); inactive = mostly above about 56%. The list shows a part of the results.

System: DeltatarO mutant
Test: growth inhibition of S. aureus wild type versus tarO mutant, primary screen, teichoic acid synthesis inhibitors, RN4220, OD600 (AID 463173)
Conditions: OD600, 18 h, active compounds read low, screened at 18.75 µg/mL (by protocol)

| SMILES | survival |
| --- | --- |
| CN(C(=O)c1nn(C)c2c1CS(=O)(=O)c1ccccc1-2)c1cccc(Cl)c1 | inactive: 64% |
| COc1ccc(-n2nc(C(=O)Nc3cccc(Cl)c3)c3c4ccccc4n(C)c3c2=O)cc1Cl | inactive: 108% |
| O=C(Nc1ccc(Br)cc1)c1cccc(S(=O)(=O)N2CCc3ccccc32)c1 | inactive: 134% |
| CC(C)(C)c1ccc(-c2nnc(-c3ccccc3NC(=O)c3ccc(F)cc3F)o2)cc1 | inactive: 129% |
| Cc1ccc(/C=C/c2onc(C)c2S(=O)(=O)N2CCC(C(=O)N(CCC(C)C)Cc3ccco3)CC2)cc1 | inactive: 68% |
| COc1ccc(N2CCN(CCCNC(=O)c3ccc4nc(N5CCCCC5)sc4c3)CC2)cc1 | inactive: 78% |
| CCc1cccc(NC(=O)CCNS(=O)(=O)c2ccc3c(c2)CCN3C(C)=O)c1 | inactive: 85% |
| COc1ccccc1NC(=O)Cn1c(=O)n(-c2ccc(C)cc2)c(=O)c2c1cnn2C | inactive: 83% |
| CCOc1ccc(NC(=O)c2oc3ccccc3c2NC(=O)c2cc3ccccc3o2)cc1 | inactive: 102% |
| Cc1ccc(CNC(=O)c2ccc(CS(=O)(=O)c3ccccc3C)o2)cc1 | inactive: 63% |
| Cc1ccc(N2C(=O)CSC23C(=O)N(CC(=O)Nc2ccccc2F)c2ccccc23)cc1C (stereo not drawn) | inactive: 90% |
| CN(C)c1ccc(CNC(=O)c2ccc3nc(CCc4ccccc4)oc3c2)cc1 | inactive: 93% |
| CCOC(=O)CSc1nc2cc3c(cc2c(=O)n1CCCCCC(=O)NCc1ccc(OC)cc1)OCO3 | inactive: 72% |
| CC(C)c1ccc(NC(=O)CSC2=Nc3ccccc3C3=NC(CC(=O)NC4CCCCC4)C(=O)N23)cc1 (stereo not drawn) | inactive: 74% |
| COc1ccc2c(Sc3ccc(Cl)cc3)c(C(=O)N3CCCCC3)[nH]c2c1 | active: 40% |
| COc1ccc(-c2nc3ccccc3n3c(-c4ccccc4)c4c(=O)n(C)c(=O)n(C)c4c23)cc1 | inactive: 80% |
| C=CCNC1CCS(=O)(=O)C1 (stereo not drawn) | inactive: 98% |
| CCCCCCC1CCC(C(=O)NC(C(=O)O)C(C)C)CC1 (stereo not drawn) | inactive: 49% |
| O=C(CSc1oc(-c2ccco2)nc1S(=O)(=O)c1ccc(Cl)cc1)Nc1ccc(F)cc1 | inactive: 64% |
| Cc1nc(C)c(C(=O)N/N=C/c2ccc(O)cc2O)cc1C(=O)N/N=C/c1ccc(O)cc1O | inactive: 80% |
| COc1ccc(N(CC(=O)NCCc2ccc(Cl)cc2)S(=O)(=O)c2c(C)nn(C)c2C)cc1 | inactive: 65% |
| CCOC(=O)C1CCN(C(=O)c2nn(-c3ccc(OC)cc3)c(=O)c3c2c2ccccc2n3C)CC1 | inactive: 74% |
| Cc1ccc(Sc2ccc(N3CCCC(C(=O)Nc4ccc(F)cc4F)C3)nn2)cc1 (stereo not drawn) | inactive: 40% |
| Cc1ccc(-c2noc(-c3nnn(CC(=O)Nc4cc(Cl)ccc4C)c3N)n2)cc1 | inactive: 80% |
| CC1CCN(S(=O)(=O)c2cc(C(=O)N3CCN(c4ccccc4F)CC3)n(C)c2)CC1 | inactive: 70% |
| Cc1ccc(CSc2nc3cccnc3n2Cc2ccc(C(=O)NCCc3cccs3)cc2)cc1 | inactive: 135% |
| Cc1nn(C)c2c1c(C(F)(F)F)cc(=O)n2CC(=O)N1CCC(C)CC1 | inactive: 98% |

| SMILES | survival |
| --- | --- |
| COc1ccc(CN2CCCN(CC(=O)Nc3ccc4c(c3)OCCO4)S2(=O)=O)cc1 | inactive: 74% |
| COc1ccc(C2CC(=O)N(CC(=O)Nc3cccc(C)c3C)c3ccccc3S2)cc1OC (stereo not drawn) | inactive: 97% |
| CCOC(=O)Cn1c(=O)sc2ccccc21 | inactive: 94% |
| COc1ccccc1CNC(=O)CCCn1c(=O)c2ccccc2n(Cc2ccc(C)cc2)c1=O | inactive: 132% |
| CCc1cccc(NC(=O)C2CCN(S(=O)(=O)c3cccc(-c4noc(C)n4)c3)CC2)c1 | inactive: 73% |
| Cc1nc2c(c(C)nn2-c2ccccc2)c(C)c1CCC(=O)NCc1ccccc1 | inactive: 70% |
| CCN1CCN(c2cc(C)c3cc(NC(=O)c4ccc(OC)c(OC)c4)ccc3n2)CC1 | active: 44% |
| CCN1CCN(Cc2c(O)ccc3cc(-c4ccc(OC)cc4)c(=O)oc23)CC1 | inactive: 69% |
| COc1ccc(C2c3cccn3CCN2S(=O)(=O)c2ccc([N+](=O)[O-])cc2)cc1 (stereo not drawn) | inactive: 69% |
| CC(=O)c1cccc(NC(=O)c2nc(-c3ccccc3)n(-c3ccccc3C)n2)c1 | inactive: 76% |
| COc1ccc(C)cc1Nc1nc(N)c2cc(OC)c(OC)cc2n1 | inactive: 69% |
| Cc1ccc(-c2n[nH]c(=S)c3ccccc23)cc1S(=O)(=O)N1CCN(C)CC1 | inactive: 95% |
| CCC1CN(C(=O)C2CCN(S(=O)(=O)c3c(C)noc3/C=C/c3ccccc3F)CC2)c2cc(C)ccc2O1 (stereo not drawn) | inactive: 70% |
| CCCCn1c(SCC(=O)NCc2ccc(C)cc2)nc2c(sc3ccccc32)c1=O | inactive: 89% |
| COCCN1CCN(Cc2ccc(C(=O)NC(C)C)cc2)C(=O)C1=O | inactive: 86% |
| COc1ccc(NC(=O)c2oc3ccccc3c2NC(=O)Cc2cccs2)c(OC)c1 | inactive: 93% |
| COc1ccc(CNC(=O)C(C)n2c(=O)cc(C)c3c(C)nn(-c4ccccc4)c32)cc1 (stereo not drawn) | inactive: 75% |
| COC(=O)c1cc2oc3ccccc3c2n1CC(=O)Nc1ccc(C)cc1C | inactive: 68% |
| CCOC(=O)Cn1c(=O)oc2cc(S(=O)(=O)N3CCN(c4cc(C)ccc4C)CC3)ccc21 | inactive: 68% |
| CN(C)CCNC(=O)c1ccc2c(c1)N(Cc1c(F)cccc1Cl)C(=O)c1ccccc1S2 | inactive: 118% |
| Cc1ccn2cc(-c3ccc(C)c(NS(=O)(=O)c4ccc(Cl)cc4)c3)nc2c1 | active: 43% |
| Cc1ccc(S(=O)(=O)c2nc(-c3cccc(Cl)c3)oc2NCc2ccccc2)cc1 | inactive: 168% |
| Cc1cc(C)c(NC(=O)Cn2c(=O)n(Cc3ccc(C(=O)NCc4ccco4)cc3)c(=O)c3sccc32)c(C)c1 | inactive: 173% |
| Cc1c(Cl)ccc2sc(N3CCN(C(=O)CS(=O)(=O)c4ccccc4)CC3)nc12 | inactive: 106% |
| CCOc1ccc(OCC)c(NS(=O)(=O)c2ccc3c(c2)CCN3C(=O)C2CCC2)c1 | inactive: 79% |
| O=C(Cc1c(C(=O)O)[nH]c2ccccc12)Nc1cccc(C(F)(F)F)c1 | inactive: 56% |
